Experimental data: the supplement of paper PMC11876631
± gives the standard deviation of the averaged measurements. Laboratory Escherichia coli strains with one amino-acid change in an essential protein, pooled on minimal glucose agar with carbenicillin or gentamicin at twice the control MIC (plus kanamycin and chloramphenicol for the plasmids), 48 h. Fold change of barcode share against drug-free plates; higher = less susceptible. Active = above 20 in both replicates (the paper's putatively resistant). '<' = one read or none on drug, '>' = one read or none on a drug-free plate. Shares are relative, so most strains fall below 1 when a few take over. Listed are strains with at least 15 reads on both drug-free plates, and hits; most hits rest on fewer reference reads. Replicate rank correlation about 0.5. Edits are read from barcodes.

B1: parE; numbered along this chain (parent)
chain: MTQTYNADAIEVLTGLEPVRRRPGMYTDTTRPNHLGQEVIDNSVDEALAGHAKRVDVILHADQSLEVIDDGRGMPVDIHPEEGVPAVELILCRLHAGGKFSNKNYQFSGGLHGVGISVVNALSKRVEVNVRRDGQVYNIAFENGEKVQDLQVVGTCGKRNTGTSVHFWPDETFFDSPRFSVSRLTHVLKAKAVLCPGVEITFKDEINNTEQRWCYQDGLNDYLAEAVNGLPTLPEKPFIGNFAGDTEAVDWALLWLPEGGELLTESYVNLIPTMQGGTHVNGLRQGLLDAMREFCEYRNILPRGVKLSAEDIWDRCAYVLSVKMQDPQFAGQTKERLSSRQCAAFVSGVVKDAFILWLNQNVQAAELLAEMAISSAQRRMRAAKKVVRKKLTSGPALPGKLADCTAQDLNRTELFLVEGDSAGGSAKQARDREYQAIMPLKGKILNTWEVSSDEVLASQEVHDISVAIGIDPDSDDLSQLRYGKICILADADSDGLHIATLLCALFVKHFRALVKHGHVYVALPPLYRIDLGKEVYYALTEEEKEGVLEQLKRKKGKPNVQRFKGLGEMNPMQLRETTLDPNTRRLVQLTIDDEDDQRTDAMMDMLLAKKRSEDRRNWLQEKGDMAEIEV
B2: gltA; a variant is named by its letters at X, in order (parent)
chain: MADTKAKLTLNGDTAVELDVLKGTLGQDVIDIRTLGSKGVFTFDPGFTSTASCESKITFIDGDEGILLHRGFPIDQLATDSNYLEVCYILLNGEKPTQEQYDEFKTTVTRHTMIHEQXTRLXHAFRRDSHPMAVMCGITGALAAFYHDSLDVNNPRHREIAAFRLLSKMPTMAAMCYKYSIGQPFVYPRNDLSYAGNFLNXMFSTPCEPYEVNPILERAMDRILILHADHEQNASTSTVRTAGSSGANPFACIAAGIASLWGPAHGGANEAALKMLEEISSVKHIPEFVRRAKDKNDSFRLMGFGHRVYKNYDPRATVMRETCHEVLKELGTKDDLLEVAMELENIALNDPYFIEKKLYPNVDFYSGIILKAMGIPSSMFTVXXAMARTVGWXAHWSEMHSDGMKIARPRQLYTGYEKRDFKSDIKR
B3: hisD; numbered along this chain (parent)
chain: MSFNTIIDWNSCTAEQQRQLLMRPAISASESITRTVNDILDNVKARGDEALREYSAKFDKTTVTALKVSAEEIAAASERLSDELKQAMAVAVKNIETFHTAQKLPPVDVETQPGVRCQQVTRPVASVGLYIPGGSAPLFSTVLMLATPASIAGCKKVVLCSPPPIADEILYAAQLCGVQDVFNVGGAQAIAALAFGTESVPKVDKIFGPGNAFVTEAKRQVSQRLDGAAIDMPAGPSEVLVIADSGATPDFVASDLLSQAEHGPDSQVILLTPAADMARRVAEAVERQLAELPRAETARQALNASRLIVTKDLAQCVEISNQYGPEHLIIQTRNARELVDSITSAGSVFLGDWSPESAGDYASGTNHVLPTYGYTATCSSLGLADFQKRMTVQELSKEGFSALASTIETLAAAERLTAHKNAVTLRVNALKEQA
B4: grpE; numbered along this chain (parent)
chain: MSSKEQKTPEGQAPEEIIMDQHEEIEAVEPEASAEQVDPRDEKVANLEAQLAEAQTRERDGILRVKAEMENLRRRTELDIEKAHKFALEKFINELLPVIDSLDRALEVADKANPDMSAMVEGIELTLKSMLDVVRKFGVEVIAETNVPLDPNVHQAIAMVESDDVAPGNVLGIMQKGYTLNGRTIRAAMVTVAKAKA
B5: ispH; numbered along this chain (parent)
chain: MQILLANPRGFCAGVDRAISIVENALAIYGAPIYVRHEVVHNRYVVDSLRERGAIFIEQISEVPDGAILIFSAHGVSQAVRNEAKSRDLTVFDATCPLVTKVHMEVARASRRGEESILIGHAGHPEVEGTMGQYSNPEGGMYLVESPDDVWKLTVKNEEKLSFMTQTTLSVDDTSDVIDALRKRFPKIVGPRKDDICYATTNRQEAVRALAEQAEVVLVVGSKNSSNSNRLAELAQRMGKRAFLIDDAKDIQEEWVKEVKCVGVTAGASAPDILVQNVVARLQQLGGGEAIPLEGREENIVFEVPKELRVDIREVD

Variants of: B1
Test: barcode share on antibiotic plates over drug-free plates; higher = less susceptible
Conditions: with Escherichia coli (laboratory strain); antibiotic: carbenicillin; 2× MIC (3.1 µg/mL)
Procedure: (§1)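 A pool of E. coli strains, each edited to carry one amino-acid change in an essential protein, was grown for 48 h on minimal glucose agar with or without antibiotic; strain barcodes were sequenced; mean of two replicates.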

Variant	fold change of barcode share
L59W	0.831 ± 0.018

Same assay, conditions: with Escherichia coli (laboratory strain); antibiotic: gentamicin; 2× MIC (MIC 0.45 µg/mL)

Variant	fold change of barcode share
L59W	0.0804 ± 0.11
V119D	< 0.0199
L122P	< 0.0202
L283A	0.0316 ± 0.014

Variants of: B2
Test: as above
Conditions: with Escherichia coli (laboratory strain); antibiotic: carbenicillin; 2× MIC (3.1 µg/mL)
Procedure: as §1

Variant	fold change of barcode share
IDMIFI	1.64 ± 0.12
IFMAFI	0.5 ± 0.025
IFMIDI	32.8 [active]
AFMIFI	0.545 ± 0.056
WFMIFI	0.632 ± 0.12
QFMIFI	0.529 ± 0.012
DFMIFI	0.644 ± 0.059
PFMIFI	0.502 ± 0.11
IFMIFW	0.801 ± 0.48
IFMIPI	29.3 [active]
IFMPFI	0.983 ± 0.2
IFMQFI	0.675 ± 0.084
IFMWFI	1.81 ± 0.99
IFQIFI	0.305 ± 0.19
IPMIFI	0.954 ± 0.35
IQMIFI	0.726 ± 0.2

Same assay, conditions: with Escherichia coli (laboratory strain); antibiotic: gentamicin; 2× MIC (MIC 0.45 µg/mL)

Variant	fold change of barcode share
AFMIFI	0.0109 ± 0.011
WFMIFI	0.0933 ± 0.12
QFMIFI	0.0521 ± 0.03
DFMIFI	0.0146 ± 0.012
PFMIFI	< 0.0102
IFMIFW	< 0.0144
IFMQFI	0.0832 ± 0.095
IFQIFI	0.0289 ± 0.012
IPMIFI	< 0.00672
IQMIFI	0.00438 ± 0.0034
IFAIFI	< 0.0176
IFMIFA	0.0242 ± 0.021
IFMIFQ	0.0363 ± 0.036

Variants of: B3
Test: as above
Conditions: with Escherichia coli (laboratory strain); antibiotic: carbenicillin; 2× MIC (3.1 µg/mL)
Procedure: as §1

Variant	fold change of barcode share
F139A	0.597 ± 0.21
F139D	0.538 ± 0.12
F139P	0.909 ± 0.03
F139Q	0.571 ± 0.13
F139W	0.477 ± 0.16
V142A	0.712 ± 0.064
V142P	0.519 ± 0.15
V142Q	0.711 ± 0.11
L143P	4.68 ± 3
L143Q	0.546 ± 0.22
L143W	1.17 ± 0.45
L145D	0.599 ± 0.26
L145P	0.535 ± 0.25
I329D	0.578 ± 0.13
I329Q	0.638 ± 0.23
I329W	0.493 ± 0.018
I330A	0.419 ± 0.027
I330W	0.577 ± 0.095

Same assay, conditions: with Escherichia coli (laboratory strain); antibiotic: gentamicin; 2× MIC (MIC 0.45 µg/mL)

Variant	fold change of barcode share
F139A	< 0.00508
F139D	0.00446 ± 0.0017
F139P	0.0115 ± 0.01
F139Q	< 0.00375
F139W	0.00421 ± 0.001
V142A	0.013 ± 0.0024
V142P	< 0.0161
V142Q	0.0433 ± 0.011
L143P	0.0193 ± 0.013
L143Q	0.012 ± 0.0076
L143W	0.0167 ± 0.011
L145D	0.0271 ± 0.022
L145P	0.0172 ± 0.0048
I329D	< 0.013
I329Q	0.0192 ± 0.0068
I329W	< 0.013
I330A	< 0.01
M144A	0.013 ± 0.0055
M144P	0.0104 ± 0.0064
M144Q	< 0.0105
L145A	0.0293 ± 0.014

Variants of: B4
Test: as above
Conditions: with Escherichia coli (laboratory strain); antibiotic: carbenicillin; 2× MIC (3.1 µg/mL)
Procedure: as §1

Variant	fold change of barcode share
L102D	0.1826 ± 0.00098
L102W	0.205 ± 0.069
M119A	0.281 ± 0.19
M119D	0.25 ± 0.1
M119P	0.1794 ± 0.00028
I142A	0.34 ± 0.15
I142D	0.42 ± 0.043
I142P	0.385 ± 0.21
I142Q	0.286 ± 0.054
I142W	0.249 ± 0.083
V190A	0.271 ± 0.16
V190P	0.262 ± 0.074
V190Q	0.182 ± 0.018
V190W	0.172 ± 0.025
V192A	0.174 ± 0.094
V192D	0.151 ± 0.016
V192P	0.258 ± 0.025
V192Q	0.285 ± 0.1
V192W	0.265 ± 0.053

Same assay, conditions: with Escherichia coli (laboratory strain); antibiotic: gentamicin; 2× MIC (MIC 0.45 µg/mL)

Variant	fold change of barcode share
L102W	< 0.00576
M119A	0.00909 ± 0.0038
M119D	< 0.00543
M119P	< 0.00649
I142A	< 0.00645
I142D	< 0.00805
I142P	0.00451 ± 0.0018
I142Q	0.00755 ± 0.0058
I142W	0.00809 ± 0.0089
V190A	0.00477 ± 0.0027
V190W	< 0.00301
V192A	0.0176 ± 0.014
V192P	0.00591 ± 0.0034
V192Q	0.00418 ± 0.0025
V192W	0.0049 ± 0.0027
I99A	< 0.0132
I99P	< 0.0142
I99Q	< 0.0143
L102Q	< 0.0149
V190D	< 0.0206

Variants of: B5
Test: as above
Conditions: with Escherichia coli (laboratory strain); antibiotic: carbenicillin; 2× MIC (3.1 µg/mL)
Procedure: as §1

Variant	fold change of barcode share
I70A	0.445 ± 0.014
F71P	0.285 ± 0.095
F71W	0.284 ± 0.022
V99A	0.339 ± 0.12
V99Q	1.75 ± 0.78
V99W	0.236 ± 0.17
V217A	0.412 ± 0.083
V217Q	0.311 ± 0.092
V217W	0.343 ± 0.085
L218A	0.327 ± 0.23
L218Q	0.325 ± 0.18
V220A	0.169 ± 0.034
V220P	0.628 ± 0.45
V262Q	0.48 ± 0.18
V262W	0.294 ± 0.072

Same assay, conditions: with Escherichia coli (laboratory strain); antibiotic: gentamicin; 2× MIC (MIC 0.45 µg/mL)

Variant	fold change of barcode share
I70A	< 0.00447
V99Q	< 0.0154
V99W	< 0.0123
V217A	< 0.00645
V217Q	0.0106 ± 0.0069
V217W	< 0.0116
L218A	0.0116 ± 0.011
L218Q	13.6 ± 5.2
V220A	0.0194 ± 0.02
V262Q	1.01 ± 0.75
V262W	0.0261 ± 0.017
I70Q	293 [active]
I70W	> 90.6 [active]
V217D	99.9 [active]
L218W	0.0101 ± 0.0082
V220D	> 59 [active]
V220W	827 [active]
V262P	0.636 ± 0.82
